Measurements from PubChem BioAssay AID2147 (National Center for Advancing Translational Sciences (NCATS), 2009).
The campaign covered roughly 230,000 compounds. About 3,600 (1.6%) were called active. This list was built around the results that the source calls inconclusive (neither active nor inactive); the mix of calls is not that of the screen. The call rests on the fitted dose curve; in most records, active means well fitted inhibition curve with a large enough effect (not every such curve was filed as active); inconclusive means small, poorly fitted or top-dose-only effect, or another doubt; inactive means no such curve, though single readings can be large or run the other way. A potency beside an inconclusive call is a rough fit, not a confirmed value.

These compounds were tested against Lysine-specific demethylase 4E (Homo sapiens) (UniProt B2RXH2) (assay: qHTS Assay for Inhibitors of Human Jumonji Domain Containing 2E (JMJD2E)). Details: JMJD2E catalytic domain, FDH-coupled NADH fluorescence (FDH is formaldehyde dehydrogenase); series mostly up to 57.1 µM; activity change, negative = inhibition: at the top concentration.
Further: nearly all actives have a fitted effect of over 50% in size.
Potency means the concentration at half of the fitted maximal effect; tags describe the fitted curve by direction and shape.
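Wherever activity change, negative = inhibition is given: 0% = wells with enzyme and -100% = buffer wells without enzyme.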

Sequence of UniProt B2RXH2 (B2RXH2 whole entry, looked up, the tested form may be a part): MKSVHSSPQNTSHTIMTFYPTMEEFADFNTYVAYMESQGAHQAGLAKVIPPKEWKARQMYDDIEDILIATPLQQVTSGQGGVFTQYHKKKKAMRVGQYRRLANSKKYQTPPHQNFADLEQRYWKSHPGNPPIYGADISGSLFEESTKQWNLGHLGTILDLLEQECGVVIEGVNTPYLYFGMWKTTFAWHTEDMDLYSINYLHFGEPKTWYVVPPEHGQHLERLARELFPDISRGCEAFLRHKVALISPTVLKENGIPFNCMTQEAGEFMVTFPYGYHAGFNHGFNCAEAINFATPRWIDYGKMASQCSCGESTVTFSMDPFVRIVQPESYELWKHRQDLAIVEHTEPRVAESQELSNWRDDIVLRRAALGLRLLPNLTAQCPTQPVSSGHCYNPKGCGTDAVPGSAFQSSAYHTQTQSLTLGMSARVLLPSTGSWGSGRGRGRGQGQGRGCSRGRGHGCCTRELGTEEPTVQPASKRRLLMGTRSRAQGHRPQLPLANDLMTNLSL

Compound	Potency	activity change, negative = inhibition
CCN(CC)c1ccc(S(=O)(=O)N2CCOCC2)cc1NC(=O)CSc1cccc[n+]1[O-]	inconclusive: 39.8 µM [inhibitor, single point]	–
Cn1cc(C(=O)N/N=C/c2c(O)ccc3ccccc23)ccc1=O	–	inactive: 3.81%
CCc1cccc(C)c1NC(=S)NCc1cccn1C	–	inactive: 6.71%
CCOC(=O)CC(=O)CSc1ccc2nnc(-c3cccc(F)c3)n2n1	inconclusive: 35.5 µM [inhibitor, single point]	–
CCCCNC(=O)c1cc2c(=O)n3cccc(C)c3nc2n(Cc2ccccc2)c1=N	inconclusive: 3.55 µM [inhibitor, full curve]	–
COC(=O)c1cc(OC)c(OC)cc1NC(=O)Nc1ccc(OC)cc1OC	–	inactive: -22.8%
O=C(Nc1ccccc1)c1ccccc1O	inconclusive: 25.1 µM [inhibitor, single point]	–
CC(=O)NS(=O)(=O)c1ccc(NC(=O)/C=C/c2ccc(C)o2)cc1	inconclusive: 31.6 µM [inhibitor, single point]	–
CCCCOC(=O)n1c(=S)oc2cc(Cl)ccc21	–	inactive: -2.63%
CC1(C)OC1COc1c2ccoc2cc2oc(=O)ccc12 (stereo not given)	active: 31.6 µM	–
O=C(Nc1ccc(-c2ccc3nncn3n2)cc1)c1ccc(Br)o1	inconclusive: 39.8 µM [inhibitor, single point]	–
Cc1cccc(Cc2c(C)[nH]c(=O)c(C#N)c2C)c1	inconclusive: 39.8 µM [inhibitor, single point]	–
O=C(NCc1ccccn1)c1coc(=O)c(Br)c1	inconclusive: 28.2 µM [inhibitor, partial curve]	–
Cc1cc(-c2n[nH]c(=S)n2Cc2ccco2)n(C)n1	inconclusive: 39.8 µM [inhibitor, single point]	–
COc1ccc(C(=O)NCC2OCCc3ccccc32)c(O)c1 (stereo not given)	inconclusive: 39.8 µM [inhibitor, single point]	–
CN(C)S(=O)(=O)c1ccc(C(=O)Nc2cc(S(=O)(=O)Nc3ccccc3Cl)ccc2N2CCCCC2)cc1	inconclusive: 28.2 µM [inhibitor, partial curve]	–
CCOCCCNC(=O)c1cc2c(-c3ccc(Cl)cc3)nn(C)c2s1	inconclusive: 31.6 µM [inhibitor, partial curve]	–
CN(C)CCN(Cc1cc2cc3c(cc2[nH]c1=O)OCO3)C(=S)NCc1ccco1	inconclusive: 22.4 µM [inhibitor, partial curve]	–
COc1cc(C2N(c3cccc(Cl)c3)C(=O)C3CCCN32)cc(OC)c1OC (stereo not given)	–	inactive: -10.1%
CCOc1cc(/C=C2/NC(=O)NC2=O)cc(Br)c1OCc1ccc(C(=O)O)cc1	inconclusive: 39.8 µM [inhibitor, single point]	–
CCCCNC(=O)c1cc2cc(OC)ccc2[nH]1	inconclusive: 31.6 µM [inhibitor, partial curve]	–
O=C(N/N=C/c1ccccn1)c1ccc(Br)cc1	–	inactive: 2.72%
Nc1ccc(/C=C/C(=O)c2ccco2)cc1	–	inactive: -4.62%

Compound	Potency	activity change, negative = inhibition
CCSc1nnc(-c2ccc(S(=O)(=O)N3CCOCC3)cc2)n1CC1CCCO1 (stereo not given)	inconclusive: 35.5 µM [inhibitor, partial curve]	–
N=c1nc(SCCC(=O)O)ss1	–	inactive: -1.88%
Cc1cccc(C(=O)Nc2ccccc2C(=O)OCC(=O)Nc2ccc(C#N)cc2)c1	inconclusive: 35.5 µM [inhibitor, single point]	–
COC(=O)c1cc(OC)c(OC)cc1NCC(=O)Nc1ccc(OC)c(OC)c1	inconclusive: 25.1 µM [inhibitor, partial curve]	–
O=C(NCc1ccncc1)C12CC3CC(CC(C3)C1)C2	–	inactive: 3.44%
Cc1cccc(-c2nnn3c2nc(NCCc2ccc(S(N)(=O)=O)cc2)c2ccccc23)c1	inconclusive: 28.2 µM [inhibitor, partial curve]	–
Cc1ccc2c(=O)oc(N(C)C)nc2c1	inconclusive: 14.1 µM [inhibitor, partial curve]	–
COc1ccc(-c2noc(-c3ccccc3-c3ccccc3)n2)cc1OC	inconclusive: 39.8 µM [inhibitor, single point]	–
Cc1ccc2nc(-c3ccccn3)oc2c1	inconclusive: 28.2 µM [inhibitor, partial curve]	–
O=C(N/N=C/c1ccccn1)c1cccc([N+](=O)[O-])c1	inconclusive: 25.1 µM [inhibitor, single point]	–
COc1ccc(N(CCCN2C(=O)c3cccc4cccc(c34)C2=O)C(=O)c2ccncc2)cc1	inconclusive: 39.8 µM [inhibitor, single point]	–
CCN(CC)CCN(Cc1cc2ccc(C)cc2[nH]c1=O)C(=O)NC1CCCCC1	inconclusive: 39.8 µM [inhibitor, single point]	–
C#C[C@@]1(OC(C)=O)CC[C@@H]2[C@@H]3CCC4=C[C@@H](OC(C)=O)CC[C@H]4[C@H]3CC[C@]21C	–	inactive: -2.8% [at 25.5 µM]
CC1(C)S[C@H]2[C@@H](NC(=O)C(N)c3ccccc3)C(=O)N2[C@H]1C(=O)O (stereo not given in full)	inconclusive: 31.6 µM [inhibitor, partial curve]	–
O=C(O)c1ccc(N2C(=O)C3ON(c4ccccc4)C(c4ccccc4F)C3C2=O)cc1 (stereo not given)	–	inactive: 5.34%
COc1ccc(C(=O)C[n+]2ccc(-c3nnc4n3CCCCC4)cc2)cc1	inconclusive: 25.1 µM [inhibitor, partial curve]	–
CCOC(=O)Nc1nnc(-c2ccccc2OC)s1	inconclusive: 17.8 µM [inhibitor, partial curve]	–
N#CCc1c(C#N)c(N)nc(N2CCN(c3ccc(F)cc3)CC2)c1C#N	–	inactive: -6.51%
CN(C)c1ccc2nc3ccc(=[N+](C)C)cc-3sc2c1	inconclusive: 39.8 µM [inhibitor, single point]	–
COc1cc(/C=C/C(=O)N2CCC=CC2=O)cc(OC)c1OC	–	inactive: -20.6%
COc1ccc(-c2cc(=O)n(-c3nc4ccccc4[nH]3)[nH]2)cc1	inconclusive: 28.2 µM [inhibitor, partial curve]	–
CCOC(=O)N1CCN(S(=O)(=O)c2ccc(OCC)c3ccccc23)CC1	inconclusive: 20 µM [inhibitor, partial curve]	–
